Results taken from patent publication US9751932B2, “Anti-big-endothelin-1 (big-ET-1) antibodies and uses thereof” (Regeneron Pharmaceuticals, Inc., priority 2012, dated 2017).

T1: human big-ET-1 (SEQ ID NO:434) (Homo sapiens, UniProt P05305)
T1 sequence (P05305 53-90 limits assumed): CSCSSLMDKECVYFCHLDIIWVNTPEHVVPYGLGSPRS

T2: mouse big-ET-1 (SEQ ID NO:437) (Mus musculus, UniProt P22387)
T2 sequence (P22387 53-91 limits assumed): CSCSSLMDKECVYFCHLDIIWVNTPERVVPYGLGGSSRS


Key:
[1] = target: T1, human big-ET-1 (SEQ ID NO:434); test: Surface plasmon resonance (Biacore) binding, mAb capture format, 37° C.; conditions: for ka / kd: analyte human big-ET-1, mAb capture
Protocol: (§1) Measurements were conducted on a T200 Biacore instrument (Biacore Life Sciences division of GE Healthcare, Piscataway, N.J.). […] Different concentrations of small-ET-1 (SEQ ID NO:435), human big-ET-1 (SEQ ID NO:434) or mouse big-ET-1 (SEQ ID NO:437) were injected over the anti-big-ET-1 captured surfaces at a flow rate of 100 μl/min. Peptide binding was monitored for 3 min while dissociation of mAb-bound peptide was monitored for 4 min in HBST running buffer (0.01 M HEPES pH 7.4, 0.15 M NaCl, 3 mM EDTA, 0.005% v/v Surfactant P20). Kinetic association (ka) and dissociation (kd) rate constants were determined by processing and fitting the data to a 1:1 binding model using Scrubber 2.0 curve fitting software.

[2] = target: T2, mouse big-ET-1 (SEQ ID NO:437); test: as above; conditions: for ka / kd / Kd: analyte mouse big-ET-1, mAb capture; for Kd: KD=kd/ka
Protocol: as §1

| ka [1] | kd [1] | ka [2] | kd [2] | binding to human big-ET-1 (in words) [1] | binding to mouse big-ET-1 (in words) [2] | Kd [2] | Molecule |
| --- | --- | --- | --- | --- | --- | --- | --- |
| 155000 M/s | 0.0349 s⁻¹ |  |  |  |  |  | H4H6334P2: anti-big-ET-1 antibody, human IgG4 Fc; HCVR/LCVR SEQ ID NO: 258/266 (antibody, V domains shown, human IgG4 Fc) VH: EVQLVESGGGLVKPGGSLRLSCAVSGFTFSIDWMIWVRQAPGTGLEWVGRIKRKTDGGTTDYAAPVKGRFTISRDDSKNTLYLQMNSLKTEDTAIYYCATGGFERWGQGTLVTVSS VL: [omitted - about 100 residues]LTFGGGTKVEIK |
| 1.45e+06 M/s | 0.0429 s⁻¹ | 2e+06 M/s | 0.196 s⁻¹ |  |  |  | H4H6332P: anti-big-ET-1 antibody, human IgG4 Fc; HCVR/LCVR SEQ ID NO: 226/234 (antibody, V domains shown, human IgG4 Fc) VH: EVQLVESGEGLVQPGGSLRLSCAASGFIFSSYAMSWVRQAPGKGLEWVSAISGSGVGTYYADSVKGRFTISRDNSKNTLYLQMNSLRAEDTAVYFCAKTLSGTHAFDIWGQGTMVTVSS VL: [omitted - about 100 residues]TFGQGTKLEIK |
| 1.81e+06 M/s | 0.0239 s⁻¹ | 3.1e+06 M/s | 0.0414 s⁻¹ |  |  |  | H4H6347P: anti-big-ET-1 antibody, human IgG4 Fc; HCVR/LCVR SEQ ID NO: 370/378 (antibody, V domains shown, human IgG4 Fc) VH: EVQLVESGGGLVQPGGSLRLSCAASGFTFSNYAMSWVRQAPGKGLEWVSAISGSGVGTYYAASVKGRFTISRDNSKNTLYLQMNSLRAEDTAVYYCPKARTGTHAFDIWGQGTMVTVSS VL: [omitted - about 100 residues]TFGPGTKVDIK |
| 2.3e+06 M/s | 0.0249 s⁻¹ | 1.3e+06 M/s | 0.0603 s⁻¹ |  |  |  | H4H6340P: anti-big-ET-1 antibody, human IgG4 Fc; HCVR/LCVR SEQ ID NO: 322/330 (antibody, V domains shown, human IgG4 Fc) VH: EVQLVESGGGLVQPGGSLRLSCAASGFTFSSSAMSWVRQAPGKGLEWVSAISGSGVGTYYAASVKGRFTISRDNSKNILYLQMNDLRAEDTALYYCPKARTGTHAFDIWGQGTMVTVSS VL: [omitted - about 100 residues]TFGPGTKVDIK |
| 28800 M/s | 0.000428 s⁻¹ |  |  | high affinity binding | did not show any binding | > 1000 nM | H4H6316P: anti-big-ET-1 antibody, human IgG4 Fc; HCVR/LCVR SEQ ID NO: 114/122 (antibody, V domains shown, human IgG4 Fc) VH: QVQLVESGGGVVQPGRSLRLSCEASGFTFSSYGMHWVRQAPGKGLEWVAVFWYDGSNKYYADSVKGRFTISRDNSKNTLYLQMNSLTAEDTAIYYCARAYDAFDIWGQGTMVTVSS VL: [omitted - about 100 residues] |
| 380000 M/s | 0.0898 s⁻¹ | 830000 M/s | 0.135 s⁻¹ |  |  |  | H2M6486N: anti-big-ET-1 antibody, mouse IgG2 Fc; HCVR/LCVR SEQ ID NO: 2/10 (antibody, V domains shown, mouse IgG2 Fc) VH: EVQLVESGGGLVKPGGSLRLSCAASGFTFSSYNMNWVRQAPGKGLEWVSSISSSSSYIYYADSVKGRFTISRDNAKNSLYLQMNSLRAEDTAVYYCARDNWNYSFDYWGQGTLVTVSS VL: [omitted - about 100 residues] |
| 117000 M/s | 1e-06 s⁻¹ |  |  | high affinity binding | did not show any binding | > 1000 nM | H2M6495N: anti-big-ET-1 antibody, mouse IgG2 Fc; HCVR/LCVR SEQ ID NO: 66/74 (antibody, V domains shown, mouse IgG2 Fc) VH: QVQLVESGGGVVQPGRSLRLSCAASGFTFRSYGMHWVRQAPGKGLEWVAVIWYDGSDKYYADSVKGRFTISRDNSKNTLYLQMNSLRAEDTAVYFCAKDEYKTRGGYFDYWGQGTLVTVSS VL: [omitted - about 120 residues] |
| 158000 M/s | 1e-06 s⁻¹ |  |  | high affinity binding | did not show any binding | > 1000 nM | H4H6328P: anti-big-ET-1 antibody, human IgG4 Fc; HCVR/LCVR SEQ ID NO: 178/186 (antibody, V domains shown, human IgG4 Fc) VH: QVQLVESGGGVVQPGRSLRLSCAASGFTFSSYGMHWVRQAPGKGLEWVAVIWYDGSDKYYADSVKGRFTISRDNSKNTLYLQMNSLRAEDTAVYYCARDGYGSRGNYFDYWGQGTLVTVSS VL: [omitted - about 100 residues]PTFGGGTKVEIK |
